In patent WO2012132067A1:

B1: IgG1-v2 (IL6R-G1d_v2/IL6R-L) (antibody)
heavy: QVQLQESGPGLVKPSETLSLTCAVSGHSISHDHAWSWVRQPPGEGLEWIGFISYSGITNYNPSLQGRVTISRDNSKNTLYLQMNSLRAEDTAVYYCARSLARTTAMDYWGEGTLVTVSS[… human IgG1 constant region with L328E (EU numbers) …]
light: DIQMTQSPSSLSASVGDRVTITCRASQDISSYLNWYQQKPGKAPKLLIYYTSRLHSGVPSRFSGSGSGTDFTFTISSLQPEDIATYYCQQGNTLPYTFGQGTKVEIK
B2: IgG1-v1 (IL6R-G1d_v1/IL6R-L) (antibody)
heavy: QVQLQESGPGLVKPSETLSLTCAVSGHSISHDHAWSWVRQPPGEGLEWIGFISYSGITNYNPSLQGRVTISRDNSKNTLYLQMNSLRAEDTAVYYCARSLARTTAMDYWGEGTLVTVSS[… human IgG1 constant region with P238D (EU numbers) …]
light: B1 light

Experiments:
[1] = molecular target: FcγRIIIa (allotype not stated, Example 13) (human) (UniProt P08637); assay: Biacore T100, Protein A capture, FcγR at 2 μmol/L, 25 C
human FcγRIIa(H) (human) [2] = molecular target: human FcγRIIa(H) (human) (UniProt P12318); assay: as above
human FcγRIIa(R) (human) = human FcγRIIa(R) (human) (UniProt P12318); assay: Biacore T100, Protein A capture, 25 C; against IgG1 (IL6R-G1d)
human FcγRIIb (human) = human FcγRIIb (human) (UniProt P31994); assay: as above
[3] = molecular target: FcγRIIIa (allotype not stated, Example 13) (human) (UniProt P08637); assay: Biacore T100, Protein A capture, 25 C; KD by the steady-state formula; against IgG1 (IL6R-G1d)
human FcγRIIa(H) (human) [4] = molecular target: human FcγRIIa(H) (human) (UniProt P12318); assay: as above
human FcγRIa (human) = human FcγRIa (human) (UniProt P12314); assay: Biacore T100, Protein A capture, 25 C; against IgG1 (IL6R-G1d)
UniProt P12314, sequence (P12314 16-292 limits assumed): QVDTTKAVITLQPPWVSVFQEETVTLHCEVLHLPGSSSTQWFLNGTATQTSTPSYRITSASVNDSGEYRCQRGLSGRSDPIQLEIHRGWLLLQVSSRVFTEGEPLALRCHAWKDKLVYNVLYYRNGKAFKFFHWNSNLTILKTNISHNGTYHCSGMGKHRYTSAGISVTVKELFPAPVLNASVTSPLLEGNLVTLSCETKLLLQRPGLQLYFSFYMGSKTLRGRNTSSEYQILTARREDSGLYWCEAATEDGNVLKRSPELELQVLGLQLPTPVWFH

UniProt P08637, sequence (P08637 other isoform, or with tags, fused parts or gaps limits assumed): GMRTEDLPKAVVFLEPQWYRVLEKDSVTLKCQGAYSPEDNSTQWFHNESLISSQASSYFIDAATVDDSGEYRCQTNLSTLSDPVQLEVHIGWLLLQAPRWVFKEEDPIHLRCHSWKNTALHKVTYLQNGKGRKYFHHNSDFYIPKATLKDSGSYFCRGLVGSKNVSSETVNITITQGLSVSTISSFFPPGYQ
UniProt P31994, sequence (P31994 43-217 limits assumed): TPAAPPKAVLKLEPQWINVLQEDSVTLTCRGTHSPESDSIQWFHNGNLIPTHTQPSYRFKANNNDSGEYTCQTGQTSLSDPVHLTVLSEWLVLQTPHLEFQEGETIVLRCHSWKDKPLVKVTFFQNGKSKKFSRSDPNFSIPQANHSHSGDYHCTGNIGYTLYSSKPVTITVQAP

Row | Binder | binding response (Req) [1] | binding response (Req) (human FcγRIIa(H) (human) [2]) | relative KD (KD of IgG1 divided by KD of the variant) (human FcγRIIa(R) (human)) | relative KD (KD of IgG1 divided by KD of the variant) (human FcγRIIb (human)) | relative KD (KD of IgG1 divided by KD of the variant) [3] | relative KD (KD of IgG1 divided by KD of the variant) (human FcγRIIa(H) (human) [4]) | relative KD (KD of IgG1 divided by KD of the variant) (human FcγRIa (human))
1 | B1 | 5 RU | 10 RU | 0.41 fold | 2.3 fold | 0.14 fold | 0.064 fold | 
2 | B2 | 2.5 RU | 2.5 RU | 0.1 fold | 4.8 fold | 0.061 fold | 0.014 fold | 0.047 fold
